Results on 43 compounds are retold here after ChEMBL document CHEMBL4888484, “Replenishing the malaria drug discovery pipeline: Screening and hit evaluation of the MMV Hit Generation Library 1 (HGL1) against asexual blood stage Plasmodium falciparum ,using a nano luciferase reporter read-out” (2022).

Out of some 150,000 compounds screened, about 540 (0.36%) showed an effect of 50% or more. This is one part of the list.

In the test the test system is Plasmodium falciparum. The experiment in a line: Primary screen in NF54 nanoGlo assay, in single point, at 2uM, 72h; a lower Z score goes with more inhibition. Format: functional, Erythrocyte. The following applies: timepoint 72 hour.
With `Cc1nn(C)c(C)c1CN(CCO)[C@@H](C)C(=O)N1CCCC1`, the “% Inhibition” value is -8% and the Z score is given as 1.39.
For `O=C(c1ccncc1)N1CC[C@H]2[C@@H](CCCN2CC2CC=CCC2)C1` (stereo partly specified) the same measures were -11% and 1.39.
For the compound `O=C1NCCC[C@@H]1Nc1ncccc1F`, the “% Inhibition” value is 1% and the Z score is on record as -0.28.
With `COc1ccc(CN2CCn3nc(C(=O)N4CCc5ccccc5C4)cc3C2=O)cc1`, the “% Inhibition” value is -8% and the Z score was 1.66.
In the case of `CC(C)(C)C1CCC(O)(CNC(=O)NC2CCC(O)CC2)CC1` (stereo unspecified), the “% Inhibition” value is reported as 0% and the Z score is given as -0.1.
In the same order, the values of `Cn1c(=O)n(CC(=O)NCc2ccc(F)cc2)c2cncnc21` are -29% and 2.96.
For `O=C(c1cccnc1)N1CC[C@H](Oc2ncc(Cl)cn2)C1` the same measures were -3% and 0.63.
For `O=C(c1ccc2ncccc2c1)N1CC2CC1CS2(=O)=O` (stereo unspecified) the same measures were -1% and 0.1.
With `Cc1ccc(Cn2ncc3c2NC(=O)C[C@]32C(=O)Nc3ccccc32)cc1`, the “% Inhibition” value came to 3% and the Z score is listed as -0.43.
Consider `CN1CCC(N2CCC(c3ncnn3-c3ccc(F)c(F)c3)CC2)CC1`, for which the “% Inhibition” value was -7% and the Z score turned out to be 0.9.
In the same order, the values of `COc1ccc2c(n1)N(C)CCN2C(=O)c1ccnnc1C` are -11% and 1.18.
For `Cc1cc(C)c(C)c(S(=O)(=O)N(C(=O)Cc2ccccc2)c2ccc3oc(=O)sc3c2)c1C` the same measures were -30% and 3.69.
For `C[C@H](O)CCN(C)c1ccc(C#N)cc1F` the same measures were 3% and -0.36.
As for `COc1ccc2c(c1)C(N1CCCN(C(=O)NCc3ccccc3)CC1)=Nc1ccccc1O2`, the “% Inhibition” value is -2% and the Z score came to 0.29.
In the same order, the values of `O=C(C[C@H]1COCCN1Cc1ccc2c(c1)OCCO2)Nc1ccccc1` are -4% and 0.69.
For `FC(F)c1cscc1-c1cn2c(n1)CCC2` the same measures were -7% and 0.7.
In the same order, the values of `Cc1cc(S(=O)(=O)N2C[C@@H](F)C[C@H]2C(=O)N2CCc3ccccc3C2)ccc1F` are -5% and 0.59.
As to `CCc1nc2ccc(-c3noc(-c4ccccn4)n3)cc2n1CC`, the “% Inhibition” value is on record as -13% and the Z score was determined as 2.16.
In the same order, the values of `CCn1nccc1CN1CCN(c2ccnc(C)n2)CC1` are -7% and 0.69.
Consider `O=C(c1ccc(Cl)c(Cl)c1)N1CC[C@H](Oc2cnsn2)C1`, for which the “% Inhibition” value was -8% and the Z score stood at 1.42.
In the same order, the values of `Cn1nc(C2CCCCC2)cc1NCc1ccc(C#N)cc1` are -7% and 0.94.
In the same order, the values of `Cc1c(Cl)cc(C(=O)NCCc2cnccn2)cc1Cl` are 2% and -0.25.
In the same order, the values of `N#Cc1ccccc1-c1ccccc1C(=O)N1C2CCC1CC(O)C2` (stereo unspecified) are 4% and -0.46.
For `CC(=O)N1CCCN(C(=O)c2cc3ccccc3c(=O)[nH]2)CC1`, the “% Inhibition” value is 0% and the Z score is on record as -0.05.
For `Cc1cc(C(=O)NCC[C@H]2CCCN2C(=O)OC(C)(C)C)oc1C` the same measures were -6% and 0.92.
For `CCN(Cc1noc(C2CCC2)n1)C(=O)NC[C@H]1CC(=O)N(C(C)(C)C)C1` the same measures were 1% and -0.21.
In the same order, the values of `O=C(Nc1ccc(F)cc1F)c1ccc(S(=O)(=O)N2CCCCCC2)cc1` are -15% and 2.5.
As for `CC(C)(CO)NC(=O)CCC(C)(C)c1ccccc1`, the “% Inhibition” value was found to be 0% and the Z score is given as -0.05.
In the same order, the values of `O=C(O)C(=O)N1CCC[C@@H]1Cc1c(F)cccc1Cl` are -8% and 1.64.
As for `Cc1c(Cl)cccc1NC(=O)Cn1nc(N2CCCCCC2)c2ccccc2c1=O`, the “% Inhibition” value is on record as -5% and the Z score is given as 0.75.
In the same order, the values of `Cc1cc(NC(=O)CN2CCC(N3c4ccccc4N(C)S3(=O)=O)CC2)no1` are 4% and -0.46.
For `C[C@@H](CC#N)N(C)Cc1cc2ccncc2s1` the same measures were 3% and -0.55.
Regarding `CC1(CNC(=O)c2cccc(-c3nccs3)c2)COC1`, the “% Inhibition” value is reported as -8% and the Z score was found to be 0.91.
For `CCOc1ncccc1CNC(=O)C[C@H]1C(=O)N(C)C(=O)N1C`, the “% Inhibition” value was -18% and the Z score is 3.33.
In the same order, the values of `CN(CC(=O)NC(C)(C)C)C(=O)c1ccc(Br)cc1O` are -13% and 2.
In the same order, the values of `O=C(O)c1cc(-c2ccc(-c3ccccc3)cc2)on1` are -7% and 1.23.
In the same order, the values of `CC(NC(CC1CCOC1)c1ccccc1)c1nc2ccccc2o1` (stereo unspecified) are 12% and -1.11.
In the case of `O=C(Nc1ccc2nc3n(c(=O)c2c1)CCCC3)c1ccc(F)cc1`, the “% Inhibition” value is listed as -7% and the Z score is reported as 0.92.
In the same order, the values of `COCCN1CC[C@H](NC(=O)c2sccc2S(=O)(=O)N(C)C)C1` are -10% and 1.3.
In the same order, the values of `Cc1cc(O)nc(C(=O)N2CC(O)(C3CC3)C2)c1` are 0% and 0.08.
With `c1csc(Cc2n[nH]c(CN3CCCC3)n2)c1`, the “% Inhibition” value stood at 9% and the Z score is listed as -1.12.
In the same order, the values of `C[C@@]1(C(=O)NCCCc2ccccc2)CCCCC(=O)N1` are 3% and -0.3.
For `CC(=O)NCCc1nc(C2(c3ccccc3)CC2)nn1C1Cc2ccccc2C1` the same measures were -9% and 1.14.

Usually % Inhibition stands for the change of the read-out against control, counted positive when it falls.
